From PubChem BioAssay AID463173 (ICCB-Longwood Screening Facility, Harvard Medical School, 2010)
Out of some 52,000 compounds screened, about 1,700 (3.3%) were called active. Rule as the data show it: active = survival mostly below about 52% (no sharp cut-off); inactive = mostly above about 56%. The list shows a part of the results.

What follows are molecules tested on Wild type (assay: growth inhibition of S. aureus wild type versus tarO mutant, primary screen, teichoic acid synthesis inhibitors, RN4220, OD600 (AID 463173)). Details: S. aureus RN4220 wild type/DeltatarO growth, OD600, 18 h, hits give low values, screened at 18.75 µg/mL (by protocol).

Row | Structure (SMILES) | survival
1 | CCN(CC)CCNC(=O)c1nn(-c2ccc(OC)c(Cl)c2)c(=O)c2c1c1ccccc1n2C | inactive: 78%
2 | COc1cc(OC)cc(-c2nc3nc(C)c(CCC(=O)Nc4ccc(F)cc4F)c(C)n3n2)c1 | inactive: 122%
3 | COC(=O)CNc1cccc(C(F)(F)F)c1 | inactive: 96%
4 | COc1cccc(C(=O)N2c3nc(-c4ccco4)nn3C3(CCCCC3)[C@@H]3CCCC[C@@H]32)c1 | inactive: 107%
5 | CCc1nn(C(C)C(=O)N2CCN(c3cccc(C(F)(F)F)c3)CC2)c(=O)c2cc3occc3n12 (centres undefined) | inactive: 101%
6 | CCCNC(=O)c1c(C)nn(-c2cccc(C)c2)c1-n1cccc1 | inactive: 47%
7 | Cc1ccc(Cn2cc(C(=O)c3ccc(F)cc3)c(=O)c3cc4c(cc32)OCCO4)cc1 | inactive: 84%
8 | CCc1ccccc1NC(=O)CSCc1cnn(-c2ccccc2)c1-n1cccc1 | inactive: 77%
9 | CCOc1ccccc1CNCCNC(=O)c1nonc1N | inactive: 128%
10 | COc1cc(OC)c(NC(=O)CC(c2cccs2)N2Cc3ccccc3C2=O)cc1Cl (centres undefined) | inactive: 101%
11 | Cc1ccc2ncc3c(-c4ccc(F)cc4)nn(-c4cccc(F)c4)c3c2c1 | inactive: 78%
12 | Cc1ccccc1Nc1sc(C(=O)c2ccccc2)c(N)c1C(=O)NCc1ccc(Cl)cc1 | inactive: 73%
13 | Cc1ccc2c(c1)c1c(c(=O)n(-c3ccccc3C)c(=O)n1CC(=O)N1CCCC1)n2C | inactive: 85%
14 | C=CCN1C(=O)CSC1=Nc1ccc(C(=O)O)cc1 | inactive: 106%
15 | CCOCCn1ccc2c(OCC(=O)NCc3ccc(C)cc3)cccc2c1=O | inactive: 95%
16 | Cc1ccccc1NC(=O)CSc1nnc(COc2ccc(Cl)cc2)o1 | inactive: 86%
17 | COc1ccc(-c2cn3nc(N4CCCC(C(=O)Nc5cccc(Cl)c5C)C4)sc3n2)cc1 (centres undefined) | inactive: 85%
18 | CN(C)CCNC(=O)c1ccc2c(c1)N(Cc1ccccc1)C(=O)c1ccccc1S2(=O)=O | inactive: 98%
19 | CCCSc1ncc(Cl)c(C(=O)NCc2ccc(OC)cc2)n1 | inactive: 89%
20 | CC(CN1CCCC1)OC(=O)c1ccc(F)cc1 (centres undefined) | inactive: 109%
21 | COCCCNC(=O)N1[C@H](c2cccs2)[C@@H](C)C(=O)[C@@H](C)[C@@H]1c1cccs1 | inactive: 74%
22 | O=C1c2[nH]nc(-c3ccccc3O)c2C(c2cccc(O)c2)N1Cc1ccncc1 (centres undefined) | inactive: 90%
23 | O=C(Cn1cc(C(=O)c2ccncc2)c(=O)c2cc(F)ccc21)Nc1ccc(Cl)cc1 | inactive: 77%

Row | Structure (SMILES) | survival
24 | COc1ccccc1CNC(=O)CCn1c(=O)c2ccccc2n(CC(=O)Nc2ccc(Br)cc2F)c1=O | inactive: 100%
25 | Cc1ccc(O)c(NC(=O)c2noc3c2CCCC3)c1 | inactive: 67%
26 | Cc1ccc2c(c1)N(S(=O)(=O)c1cc(-c3onc(C)c3C)ccc1C)CCO2 | inactive: 97%
27 | O=C(CN1C(=O)COc2ccc(S(=O)(=O)N3CCCC3)cc21)N1CCN(c2ccc(Cl)cc2)CC1 | inactive: 129%
28 | COc1cccc(-n2cc(C(=O)OCc3ccc(F)c(F)c3)c3ccccc3c2=O)c1 | inactive: 71%
29 | CCCCNc1nc2c(c(=O)n(C)c(=O)n2C)n1CC(O)COc1ccccc1C (centres undefined) | inactive: 80%
30 | O=C(Nc1ccc(F)c(Cl)c1)C1CCN(S(=O)(=O)c2ccc3[nH]c(=O)ccc3c2)CC1 | inactive: 47%
31 | COc1ccc(C(=O)Nc2nnc(S(=O)(=O)N3CCCc4ccccc43)s2)cc1 | inactive: 56%
32 | Cc1ccc2nc(-c3cccc(NC(=O)c4ccc(Br)o4)c3)oc2c1 | active: 7%
33 | CCOc1ccccc1-n1nnc(-c2nc(-c3ccccc3C)no2)c1C | inactive: 72%
34 | Cc1nn(C)c2c1c(C(F)(F)F)cc(=O)n2CC(=O)N1CCCCC1 | inactive: 67%
35 | O=C(O)c1cccc(Nc2ncnc3ccc(Br)cc23)c1 | inactive: 127%
36 | Cc1ccc(C(=O)Nc2nc3n(n2)C(c2ccc(F)cc2)C=C(c2ccccc2)N3)cc1 (centres undefined) | inactive: 61%
37 | Cc1ccc(Cl)cc1NC(=O)N1CCC(CN2CCCCCC2)CC1 | inactive: 59%
38 | Cc1ccc(NC(=O)CSc2ccc3nnc(CCNS(=O)(=O)c4ccccc4)n3n2)cc1Cl | inactive: 87%
39 | Cc1ccccc1NC(=O)c1cccc2c(=O)c3c([nH]c12)CCCC3 | inactive: 80%
40 | CC(C)N(C(=O)CSc1nnc(Cn2nnc3ccccc32)n1C)C(C)C | inactive: 102%
41 | Cc1ccc2cc(CN(C)C(=O)c3cccc(Cl)c3)c(=O)[nH]c2c1 | inactive: 83%
42 | CCC1CN(C(=O)Nc2cc(C)ccc2OC)c2cc(Cl)ccc2O1 (centres undefined) | inactive: 82%
43 | CCCCC(=O)OCc1cc(=O)n2nc(C3CCCCC3)sc2n1 | inactive: 111%
44 | COC(=O)c1ccc(NC(=O)CC2Nc3cc(C)c(C)cc3NC2=O)cc1 (centres undefined) | inactive: 64%
45 | Cc1cc(C)n(-c2nc3ccccc3nc2Nc2ccc(Cl)c(Cl)c2)n1 | active: 1%
46 | COc1ccccc1NCc1cccn1-c1nnc(N2CCCCCC2)s1 | inactive: 60%

Row | Structure (SMILES) | survival
47 | CNC(=O)c1nc(-c2ccccc2)oc1C | inactive: 112%
48 | Cc1cc(C)cc(OCC(=O)NC(Cc2c[nH]c3ccccc23)C(=O)O)c1 (centres undefined) | inactive: 70%
49 | Cc1cccc(OCC(=O)Nc2c(C(=O)N3CCN(c4ccccc4F)CC3)oc3ccccc23)c1 | inactive: 83%
50 | COc1ccc(C2c3c(n(C)c4ccccc34)C(=O)N2CC(=O)Nc2cc(Cl)ccc2C)cc1 (centres undefined) | inactive: 80%
51 | Cc1ccc2onc(CC(=O)Nc3cccc(C(F)(F)F)c3)c2c1 | inactive: 92%
52 | CCCc1cc(=O)n2[nH]c(NC(=O)c3ccccc3Cl)nc2n1 | inactive: 112%
53 | CCOC(=O)N1CCN(C(=O)CN(c2cccc(Cl)c2)S(=O)(=O)c2ccccc2)CC1 | inactive: 63%
54 | CCCN(C(=O)c1cc2c(=O)oc3ccccc3c2s1)c1cccc(Cl)c1 | inactive: 74%
55 | Cc1ccc(NC(=O)N2CCc3cc(S(=O)(=O)N4CCC(C)CC4)ccc32)cc1F | inactive: 126%
56 | CCOC(=O)c1ccc(N2C(=O)c3[nH]nc(-c4ccc(OC)cc4)c3C2c2ccccc2Cl)cc1 (centres undefined) | inactive: 75%
57 | Cc1ccccc1C(=O)NC1CCN(Cc2nnnn2C2CCCC2)CC1 | inactive: 102%
58 | O=C(Nc1ccccc1)N(Cc1cccs1)c1ccc(F)cc1 | inactive: 86%
59 | COc1cccc(CNC(=O)c2cc(S(=O)(=O)N3CCCCCC3)cn2C)c1 | inactive: 85%
60 | CCOC(=O)c1sc(N2C(=O)c3oc4ccc(C)cc4c(=O)c3C2c2ccccc2F)nc1C (centres undefined) | inactive: 134%
61 | CCOC(=O)CSc1nc2cc3c(cc2c(=O)n1CCCC(=O)NCCc1ccc(OC)c(OC)c1)OCO3 | active: -4%
62 | CCOC(=O)c1c(NC(=O)CSc2cn(CCNC(=O)c3ccc(OC)c(OC)c3)c3ccccc23)sc2c1CCCC2 | inactive: 80%
63 | CCc1cccc(NS(=O)(=O)c2ccc3c(c2)n(C)c(=O)c(=O)n3C)c1 | inactive: 82%
64 | CCOc1ccc(N2C(=O)c3n[nH]c(-c4cccs4)c3C2c2cccc(F)c2)cc1 (centres undefined) | inactive: 60%
65 | CCOC(=O)c1ccc(-n2c(-c3ccc(C)cc3)c(C)n3c4c(=O)n(C)c(=O)n(C)c4nc23)cc1 | inactive: 73%
66 | COc1ccc(-c2cc(-c3ccc4c(c3)NC(=O)CO4)nc3c2COc2ccc(F)cc2-3)cc1 | inactive: 68%
67 | CCc1nonc1NC(=O)c1oc2ccc(C)cc2c1C | inactive: 91%
68 | O=c1[nH]ncc(NCc2ccc(Cl)cc2)c1Cl | inactive: 87%
69 | O=C(CCCSc1nc(-c2ccco2)cc(C(F)(F)F)n1)Nn1cnnc1 | inactive: 108%

Row | Structure (SMILES) | survival
70 | CN(C)c1ccc(-c2nc(-c3ccco3)no2)cc1[N+](=O)[O-] | inactive: 86%
71 | CCc1ccc(NC(=O)c2ccc(F)c(S(=O)(=O)NCc3ccc(Cl)c(Cl)c3)c2)cc1 | inactive: 129%
72 | CCN(CC)S(=O)(=O)c1ccc2c(c1)N(CC(=O)N1CCN(c3cccc(OC)c3)CC1)C(=O)CO2 | inactive: 60%
73 | Cc1ccc(Cl)cc1-n1ncc2c(NCCCc3ccccc3)ncnc21 | inactive: 133%
74 | Cc1c(Nc2nc3ccccc3n3c(C)nnc23)cccc1C(=O)O | inactive: 84%
75 | CCOc1ccccc1CNC(=O)c1ccc2c(c1)nc1n2CCCCC1 | inactive: 112%
76 | Fc1ccc(-n2ncc3c(N4CCCCCC4)ncnc32)cc1 | inactive: 82%
77 | Cc1ccc(NC(=O)N2CC3CCCN3c3ccccc32)c(C)c1 (centres undefined) | inactive: 117%
78 | COc1ccc(NC(=O)c2ccco2)cc1NC(=O)COc1ccc(Cl)c(C)c1 | inactive: 107%
79 | Cc1ccc(-c2cc(C(=O)N(Cc3ccc(C(C)(C)C)cc3)Cc3ccco3)no2)cc1 | inactive: 123%
80 | Cc1cc(N2CCN(c3cccc(C(F)(F)F)c3)CC2)n2nc(-c3ccccc3)nc2n1 | inactive: 87%
81 | CCc1cccc(C)c1NC(=O)CCn1c(=O)c2cccn2c2ccccc21 | inactive: 79%
82 | CC(C)C(=O)NCC1(N(C)C)CCCCC1 | inactive: 87%
83 | CCOc1ccc(C(=O)Nc2c(C(=O)N3CCN(c4ccccc4F)CC3)oc3ccccc23)cc1 | inactive: 82%
84 | Cc1ccc(NS(=O)(=O)c2cc3[nH]c(=O)c(=O)[nH]c3cc2C)cc1Cl | inactive: 75%
85 | CCOc1ccc(-n2nc(CO)c(C(=O)NCc3cccs3)n2)cc1 | inactive: 82%
86 | Cc1ccc([N+](=O)[O-])cc1S(=O)(=O)N1CCn2cccc2C1c1ccccc1 (centres undefined) | inactive: 92%
87 | COc1ccc(N2CCN(Cc3cccn3-c3nnc(N4CCN(C5CCCCC5)CC4)s3)CC2)cc1 | inactive: 93%
88 | Cc1nc(SC(C)C(=O)Nc2ccccc2Cl)cc(-c2ccccc2)n1 (centres undefined) | inactive: 76%
89 | CCn1cc(C(=O)N2CCN(c3cc(C)ccc3C)CC2)c(=O)c2cc(S(=O)(=O)N3CCCCC3)ccc21 | inactive: 76%
